# The list shows a part of the results.
# Tested on: HSkMC (human skeletal muscle cells)
# Experiment: cytotoxicity call (relative viability < 0.9)
# Details: 10 µM
row,SMILES,cytotoxicity call
1,C[C@H](CO)N1C[C@H](C)[C@H](CN(C)Cc2ccc(-c3ccccc3)cc2)OCc2ccccc2-c2ccccc2C1=O,inactive
2,COc1ccc(NC(=O)N(C)C[C@H]2Oc3c(NC(=O)C4CCOCC4)cccc3C(=O)N([C@@H](C)CO)C[C@H]2C)cc1,inactive
3,Cc1ccc(-c2ccc3c(c2)O[C@@H](CN(C)C(=O)Nc2ccc(C(F)(F)F)cc2)[C@H](C)CN([C@@H](C)CO)S3(=O)=O)cc1,inactive
4,Cc1noc(C)c1S(=O)(=O)N(C)C[C@@H]1OCCCC[C@H](C)Oc2ccc(NS(C)(=O)=O)cc2C(=O)N([C@@H](C)CO)C[C@H]1C,inactive
5,Nc1ccc(S(=O)(=O)Nc2nccs2)cc1,inactive
6,O=C1NC(=O)NC2(N1)C(=O)Nc1ccccc12,inactive
7,C[C@H]1CN([C@@H](C)CO)C(=O)Cc2cc(NC(=O)Nc3ccccc3)ccc2O[C@@H]1CN(C)Cc1ccc(Oc2ccccc2)cc1,active
8,CCCNC(=O)Nc1ccc2c(c1)C(=O)N(C)C[C@@H](OC)[C@@H](C)CN(Cc1ccc(-c3ccccn3)cc1)[C@H](C)CO2,inactive
9,C[C@H](CO)N1C[C@H](C)[C@H](CN(C)S(=O)(=O)c2ccc(F)cc2)OCCCC[C@H](C)Oc2ccc(NC(=O)Nc3ccc(F)cc3)cc2C1=O,inactive
10,C[C@@H]1CCCCO[C@@H](CN(C)CC2CCCCC2)[C@@H](C)CN([C@@H](C)CO)C(=O)c2cc(NC(=O)Nc3ccc4c(c3)OCO4)ccc2O1,inactive
11,COc1ccc(S(=O)(=O)N(C)C[C@H]2OCCCC[C@@H](C)Oc3ccc(NS(=O)(=O)c4cn(C)cn4)cc3C(=O)N([C@@H](C)CO)C[C@@H]2C)cc1,inactive
12,Cc1ccc(S(=O)(=O)N(C)C[C@H]2Oc3ccc(NC(=O)Cn4cnnn4)cc3CC(=O)N([C@H](C)CO)C[C@H]2C)cc1,inactive
13,O=C(Cn1cc(COc2ccc(Cl)c(Cl)c2)nn1)NS(=O)(=O)c1cccc(OC(F)F)c1,inactive
14,COc1ccc([C@H]([C@@H](O)Cc2ccccc2)N(CC#C[C@@H](O[Si](c2ccccc2)(c2ccccc2)C(C)(C)C)c2ccccc2)[C@@H](Cc2ccccc2)C(OC)OC)cc1,inactive
15,COc1cccc(NC(=O)N[C@H]2CC[C@H](CC(=O)N3CCN(C)CC3)O[C@@H]2CO)c1,inactive
16,C[C@H]1CN([C@@H](C)CO)C(=O)c2cc(NC(=O)Cn3cnnn3)ccc2O[C@H]1CN(C)Cc1ccc(C(=O)Nc2ccccc2N)cc1,inactive
17,O=C(CN1CCOCC1)N[C@H]1CC[C@H](CCNS(=O)(=O)c2ccccc2F)O[C@@H]1CO,inactive
18,C[C@@H]1CN([C@@H](C)CO)C(=O)c2cccc(NC(=O)CCCCCC(=O)Nc3ccccc3N)c2O[C@H]1CN(C)C(=O)Nc1cccc2ccccc12,inactive
19,Cc1cn(-c2cc(NC(=O)c3ccc(C)c(Nc4nccc(-c5cnccn5)n4)c3)cc(C(F)(F)F)c2)cn1,active
20,C[C@@H]1CN([C@H](C)CO)S(=O)(=O)c2ccc(C#Cc3ccncc3)cc2O[C@H]1CN(C)S(=O)(=O)c1ccc(F)cc1,inactive
21,COc1ccc2c(c1)c(-c1cccc(C)c1)nn2-c1ccccc1,inactive
22,COCC(=O)N1CC[C@]2(CC1)CN([C@H](CO)c1c2c2ccc(cc2n1C)OC)C(=O)CN1CCOCC1,inactive
23,C[C@@H]1CCCCO[C@@H](CN(C)Cc2ccc3c(c2)OCO3)[C@@H](C)CN([C@H](C)CO)C(=O)c2cc(NS(=O)(=O)c3ccccc3)ccc2O1,inactive
24,COc1ccc(CNCC(=O)O)cc1,inactive
25,Cc1ccc(S(=O)(=O)Nc2ccc3c(c2)C(=O)N([C@H](C)CO)C[C@@H](C)[C@@H](CN(C)C(=O)C2CCCCC2)OCCCC[C@H](C)O3)cc1,inactive
26,Nc1nnc(N[C@H]2CCCCNC2=O)[nH]1,inactive
27,C[C@H](CO)N1C[C@H](C)[C@@H](CN(C)Cc2ccc(C(=O)Nc3ccccc3N)cc2)Oc2ccc(NS(=O)(=O)c3cn(C)cn3)cc2CC1=O,inactive
28,COc1ccc(-c2ccc3c(c2)O[C@H](CN(C)CC2CCOCC2)[C@@H](C)CN([C@@H](C)CO)S3(=O)=O)cc1,inactive
29,CC12CCC3c4ccc(OC(=O)c5ccccc5)cc4CCC3C1CCC2O (stereo not given),inactive
30,C[C@@H]1CN([C@@H](C)CO)C(=O)c2cc(NS(=O)(=O)c3ccc(Cl)cc3)ccc2O[C@H]1CN(C)Cc1ccc(C(=O)Nc2ccccc2N)cc1,inactive

# — the antibiotic and cytotoxicity screens of Wong et al. (2023)
